Results: PubChem BioAssay AID1508642 (National Center for Advancing Translational Sciences (NCATS), 2021)
About 200 (0.47%) of roughly 43,000 compounds were called active. About 12% were inconclusive and are not listed. Calls follow the shape of the dose curve; as a rule, active = well fitted cell-killing curve with a large enough effect; inconclusive = small, poorly fitted or top-dose-only effect, or effect the other way; inactive = flat fitted curve, though single readings scatter. The list shows a part of the results.

Assay: Cell viability qHTS assay in S16 Pmp22-F2sN cells; also: nearly all actives have a fitted effect of over 65% in size
Conditions: S16 Pmp22-F2sN Schwann cells viability, CellTiter-Glo, 24 h; series mostly up to 57.5 µM; activity change, negative = cytotoxicity: at the top concentration
How it was run: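 Viability was measured by CellTiter-Glo luminescence (15 min, room temperature). This followed 24 h at 37 °C of compound exposure (23 nL pin transfer) in S16 Pmp22-F2sN Schwann cells, 500-1,000 per well.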
% is scaled to controls: 0 for no effect and ±100 for the full control effect.

SMILES	activity change, negative = cytotoxicity
CCCC(=O)OCc1cnc(C)c2oc(=O)c(C(=O)Nc3ccc(F)cc3C)cc12	inactive: 3.18%
CCCCN(CC)CCNC(=O)c1nn(-c2ccc(OC)cc2)c(=O)c2c1c1ccccc1n2C	inactive: 6.17%
N#C/C(=C\c1ccccc1)c1nc(-c2cc3c(ccc4ccccc43)oc2=O)cs1	inactive: 4.96%
COc1cccc(-c2noc(COc3cccc(C)c3C)n2)c1	inactive: 3.94%
CCOc1ccc(CCNC(=O)C2CC(=O)N(CCc3ccc(OC)c(OC)c3)C2)cc1OCC (configuration not stated)	inactive: 3.81%
Clc1cccc(N2CCN(c3nc4ccccc4c4nc(-c5cccnc5)nn34)CC2)c1	inactive: -0.0056%
COc1ccc(C)cc1NC(=O)c1ccc2c(c1)N(Cc1cccc(Cl)c1)C(=O)c1ccccc1S2=O (configuration not stated)	inactive: 1.72%
Cc1ccc(C)c(NC(=O)c2ccc(=O)n(Cc3ccc(F)cc3)c2)c1	inactive: -3.14%
CCCCC(=O)Nc1cc(-c2nc3ccccc3o2)ccc1OC	inactive: 13.4%
CCS(=O)(=O)N1CCc2cc(C(=O)N3CCN(c4ccccc4)CC3)ccc21	inactive: -3.74%
CCOC(=O)c1noc2ncn(CC(=O)Nc3ccc(OC)c(Cl)c3)c(=O)c12	inactive: -5.18%
Cc1ccc(S(=O)(=O)c2nc(-c3cccs3)oc2SC(C)c2ccccc2)cc1 (configuration not stated)	inactive: -0.606%
Cc1cc(C)n2nc(SCC(=O)Nc3ccc(O)cc3)nc2n1	inactive: -6.43%
COc1ccc2[nH]cc(CCNC(=O)Nc3c(C)cccc3C)c2c1	inactive: -9.78%
Cc1ccc(NC(=O)CSc2ncccc2C(=O)Oc2ccccc2Cl)cc1Cl	inactive: -12.8%
CCOc1ccc(-c2cc(C(=O)NCc3ccc(OCC)c(OC)c3)[nH]n2)cc1	inactive: 6.04%
COc1ccc(-c2ccc(NS(=O)(=O)c3ccccc3)cc2)nn1	inactive: 5.59%
O=c1c2sc3ccccc3c2n(Cc2ccc(F)cc2)c(=O)n1Cc1ccccc1	inactive: 0.729%
CCc1cccc(CC)c1NC(=O)CCS(=O)(=O)c1ccc(Br)cc1	inactive: -10.9%
CCc1ccc(NC(=O)Cn2c(=O)n(CCCC(=O)NCc3ccccc3OC)c(=O)c3ccccc32)cc1	inactive: 21.9%
COc1cc(C)ccc1OCCSc1nc2ccc(NC(=O)c3ccc4c(c3)OCO4)cc2s1	inactive: -5.88%

SMILES	activity change, negative = cytotoxicity
Cc1cc(NC(=O)CN(C)S(=O)(=O)c2ccc3c(c2)CCCC(=O)N3)ccc1Br	inactive: -21.2%
Cc1cccc(NC(=O)C(=O)NCC(c2cccnc2)N2CCc3ccccc32)c1C (configuration not stated)	inactive: -15.2%
CCOc1ccc(-c2nonc2NC(=O)c2oc3ccc(Cl)cc3c2C)cc1	inactive: -3.66%
Cc1ccn2c(=O)c(C(=O)Nc3ccc(F)c(C(F)(F)F)c3)cnc2c1	inactive: -2.55%
O=C(Cn1cc(S(=O)(=O)c2ccc(F)cc2)c(=O)c2cc3c(cc21)OCO3)Nc1ccccc1	inactive: 3.46%
CC1=C(C(=O)Nc2ccc(C)cc2C)C(CC(C)C)n2nc(SCc3ccccc3C)nc2N1 (configuration not stated)	inactive: 1.63%
COc1cccc(NC(=O)c2oc3ccccc3c2NC(=O)COc2ccccc2C)c1	inactive: -0.633%
COC(=O)c1ccccc1NC(=O)CCCn1nc(C)c2sc3ccccc3c2c1=O	inactive: 10.1%
COc1ccc(-c2nnn3c2nc(NCc2ccccc2)c2ccccc23)cc1	inactive: 27.5%
O=c1oc2c(F)cc(F)cc2cc1S(=O)(=O)c1ccc(F)cc1	inactive: -3.07%
Cc1nc(C)c(CCNS(=O)(=O)c2ccc(C)c(C)c2)s1	inactive: 1.11%
Cc1ccc(Cc2nc3ccccc3nc2SCC(=O)N2CCCCC2)cc1	inactive: -6.64%
CCOc1ccc(CN2CCN(S(=O)(=O)c3ccc(Cl)cc3)CC2)cc1	inactive: -7.72%
CC(C)Cc1ccc(S(=O)(=O)Nc2ccc3[nH]c(=O)[nH]c3c2)cc1	inactive: -17.5%
CCOc1ccc(OCC)c(NC(=O)c2cnc3c(-c4ccccc4)c(C)nn3c2C)c1	inactive: 5.16%
O=C(CCC1N=C2c3ccccc3N=C(SCc3ccccc3Cl)N2C1=O)NCc1cccs1 (configuration not stated)	inactive: 0.478%
O=C(NCc1ccccc1F)C(=O)NCC(c1cccs1)S(=O)(=O)c1cccs1 (configuration not stated)	inactive: 0.78%
COc1ccccc1OCC(=O)NCC1(N2CCOCC2)CCCCC1	inactive: 16.9%
O=C(NCc1cccc(Cl)c1)c1ccc(CS(=O)Cc2ccccc2Cl)o1 (configuration not stated)	inactive: -21%
COC(=O)c1cc2oc(C)cc2n1Cc1cccc(Cl)c1	inactive: 2.09%
Cc1ccc(-n2c(=O)c3c(c4cc(C)ccc4n3C)n(CC(=O)NCCC3=CCCCC3)c2=O)cc1	inactive: 4.72%

SMILES	activity change, negative = cytotoxicity
O=c1c2oc3ccccc3c2n(Cc2cccc(Cl)c2)c(=O)n1Cc1ccc2c(c1)OCO2	inactive: 8.48%
CC(=O)c1c(C)oc2c(Cl)cc(NS(=O)(=O)c3cc(C)c(C)cc3C)cc12	inactive: 16.5%
COCCn1c(SCC(=O)c2ccc(OC)cc2)nc2cc(C(=O)NC3CCCC3)ccc2c1=O	inactive: 6.87%
CCCOc1ccc(-c2nonc2NC(=O)COc2ccc(C)cc2)cc1OCCC	inactive: -2.06%
CCC(=O)Nc1ccc2nc(SCCOc3cccc(C)c3)sc2c1	inactive: 9.58%
Cc1ccc(S(=O)(=O)c2nnn(CC(=O)Nc3ccccc3C)c2N)cc1C	inactive: -0.806%
COc1ccc(NC(=O)Cn2c(=O)n(-c3cccc(C)c3)c(=O)c3c2c2cc(C)ccc2n3C)cc1OC	inactive: -2.11%
Cc1ccc2oc(-c3ccc(C)c(NC(=O)c4ccc5c(c4)OCCO5)c3)nc2c1	inactive: 15.3%
COc1ccc(-c2n[nH]c3c2C(c2ccc(Cl)cc2Cl)NC3=O)cc1 (configuration not stated)	inactive: -26.4%
CCN(CCCNC(=O)c1ccc(Sc2ccc(C)cc2)c(NC(C)=O)c1)c1cccc(C)c1	inactive: -23.9%
COc1ccc(-n2c(=O)c3c(c4cc(OC)ccc4n3C)n(CC(=O)NCC3CCCO3)c2=O)cc1 (configuration not stated)	inactive: 10.2%
COc1cc(Cl)c(NC(=O)c2cc(S(=O)(=O)N3CCOCC3)cn2C)c(OC)c1	inactive: -10.4%
CCOC(=O)c1ccc(-c2ccc(/C=C(\C#N)C(=O)Nc3c(C)cccc3Cl)o2)cc1	inactive: 15.3%
CCc1nn2c(-c3ccco3)ccnc2c1-c1ccc(F)cc1	inactive: 13.8%
C#CCSc1nc2sc3c(c2c(=O)n1-c1cccc(OC)c1)CCN(C(C)=O)C3	inactive: -0.682%
Cc1ccccc1Nc1c(-c2cccc(O)c2)nc2ccc(Br)cn12	inactive: -13%
O=S(=O)(NCc1ccc(F)cc1)c1ccc2[nH]c3c(c2c1)CCCCC3	inactive: -0.983%
CCOC(=O)c1nc(Nc2ccc(OC)cc2)c2ccccc2n1	inactive: 17.1%
Cc1ccc(CNC(=O)c2cc(S(=O)(=O)N3CCCC(C)C3)cn2C)cc1 (configuration not stated)	inactive: -0.524%
Cc1sc(C2C(C#N)=C(N)N(c3cccc(Cl)c3)C3=C2C(=O)CCC3)cc1CN1CCOCC1 (configuration not stated)	inactive: -2.88%
